Experiment [1] concerns the target T1, sensor domain of CpxA (CpxA-SD), BACTH hybrid (E. coli K12 (MG1655)) (UniProt P0AE82).
T1 sequence: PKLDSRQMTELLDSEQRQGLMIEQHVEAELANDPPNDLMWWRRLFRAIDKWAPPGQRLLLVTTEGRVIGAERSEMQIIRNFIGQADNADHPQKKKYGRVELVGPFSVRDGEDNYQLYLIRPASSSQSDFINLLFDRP
The experiment can be described thus: two-hybrid; BACTH in cyclase-deficient E. coli BTH101; T25 and T18 fragments of B. pertussis adenylate cyclase fused to the N- or C-terminal ends; MacConkey-lactose plates 24 h at 30 °C and β-galactosidase activity in liquid cultures; the positive control (zip) is 100%, the negative control is the empty ….

Experiment [2] has as its target T2, CpxA-Strep (full-length CpxA sensor kinase with a C-terminal Strep-tag) (E. coli K12 (MG1655)) (UniProt P0AE82).
T2 sequence: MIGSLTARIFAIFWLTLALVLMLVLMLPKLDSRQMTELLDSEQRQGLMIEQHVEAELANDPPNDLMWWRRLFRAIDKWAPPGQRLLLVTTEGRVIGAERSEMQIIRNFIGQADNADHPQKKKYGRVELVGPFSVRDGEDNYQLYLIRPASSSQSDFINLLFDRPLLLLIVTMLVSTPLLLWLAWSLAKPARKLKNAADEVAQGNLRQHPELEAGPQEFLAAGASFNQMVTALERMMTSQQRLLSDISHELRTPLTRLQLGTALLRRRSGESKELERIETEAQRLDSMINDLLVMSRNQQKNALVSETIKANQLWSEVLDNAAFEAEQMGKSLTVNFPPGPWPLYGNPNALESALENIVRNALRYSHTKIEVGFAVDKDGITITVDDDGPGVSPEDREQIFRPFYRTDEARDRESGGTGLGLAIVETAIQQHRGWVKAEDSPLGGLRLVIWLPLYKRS
The experiment can be described thus: pull-down; mSPINE procedure without formaldehyde treatment (control): CpxA-Strep purified on Strep-Tactin from DDM-solubilised membranes of E. coli TG1; immunoblot. A general note: A western blot detects proteins with antibodies after separation by electrophoresis.

Experiment [3] deals with T2, CpxA-Strep (full-length CpxA sensor kinase with a C-terminal Strep-tag) (E. coli K12 (MG1655)). Kind of experiment: cross-linking + pull-down; mSPINE: E. coli TG1 cells treated with 0.6% formaldehyde for 20 min at 37 °C; membranes solubilised with 2% DDM; CpxA-Strep purified on Strep-Tactin; cross-links cleaved at 95 °C; immunoblot. Cells in standard LB (pH 7.0, 150 mM NaCl); also LB pH 8.0, LB with 200 or 250 mM NaCl, varied arabinose, PapEntd co-expressed.

Experiment [4] has as its target signal peptide-free CpxP, BACTH hybrid (E. coli K12 (MG1655)) (UniProt P0AE85). The experiment can be described thus: two-hybrid; BACTH in cyclase-deficient E. coli BTH101; T25 and T18 fragments of B. pertussis adenylate cyclase fused to the N- or C-terminal ends; MacConkey-lactose plates 24 h at 30 °C and β-galactosidase activity in liquid cultures; the positive control (zip) is 100%, the negative control is the empty ….

Experiment [5] concerns the target T2, CpxA-Strep (full-length CpxA sensor kinase with a C-terminal Strep-tag) (E. coli K12 (MG1655)). The experiment can be described thus: cross-linking + pull-down; mSPINE as a2, misfolded PapE co-expressed from pKT02E; elution fractions concentrated more strongly than samples without PapE.

These are yes or no findings as the source states them, for the method shown. For part of these data: In cells and extracts the contact can be indirect. Some results given as binding are weak or reduced against the parent protein; the word gives no strength. For part of these data: Tags and fused reporters may be left off the sequences shown.

B1: sensor domain of CpxA (CpxA-SD), BACTH hybrid (domain or fragment, UniProt P0AE82 28-164)
chain: PKLDSRQMTELLDSEQRQGLMIEQHVEAELANDPPNDLMWWRRLFRAIDKWAPPGQRLLLVTTEGRVIGAERSEMQIIRNFIGQADNADHPQKKKYGRVELVGPFSVRDGEDNYQLYLIRPASSSQSDFINLLFDRP
As for B1, the binding entry in experiment [1] was “binds”.

B2: endogenous CpxR response regulator (protein, UniProt P0AE88 1-232)
chain: MNKILLVDDDRELTSLLKELLEMEGFNVIVAHDGEQALDLLDDSIDLLLLDVMMPKKNGIDTLKALRQTHQTPVIMLTARGSELDRVLGLELGADDYLPKPFNDRELVARIRAILRRSHWSEQQQNNDNGSPTLEVDALVLNPGRQEASFDGQTLELTGTEFTLLYLLAQHLGQVVSREHLSQEVLGKRLTPFDRAIDMHISNLRRKLPDRKDGHPWFKTLRGRGYLMVSAS
For B2, the binding result in experiment [2] is reported as “no binding (condition: without formaldehyde treatment)”; in experiment [3] it was “binds”.

B3: signal peptide-free CpxP, BACTH hybrid (protein, UniProt P0AE85 21-166)
chain: AAEVGSGDNWHPGEELTQRSTQSHMFDGISLTEHQRQQMRDLMQQARHEQPPVNVSELETMHRLVTAENFDENAVRAQAEKMANEQIARQVEMAKVRNQMYRLLTPEQQAVLNEKHQQRMEQLRDVTQWQKSSSLKLLSSSNSRSQ
B3: the binding entry in experiment [1] and in experiment [4] was “binds” in each case.

B4: CpxPA108V (protein, UniProt P0AE85 22-166)
chain: AEVGSGDNWHPGEELTQRSTQSHMFDGISLTEHQRQQMRDLMQQARHEQPPVNVSELETMHRLVTAENFDENAVRAQAEKMANEQIVRQVEMAKVRNQMYRLLTPEQQAVLNEKHQQRMEQLRDVTQWQKSSSLKLLSSSNSRSQ
Regarding B4, in experiment [5], the binding entry is “binds”.

These data come from paper PMC4160245.
